According to the RNAGym collection of RNA variant scans (doi:10.7554/elife.90254):
The source gives no read counts; variants with many changes may rest on few reads.

B1: LINE1-mini (parent)
chain: GGCAGAGCUCAACACAGCGUGGCAAAGUGGCUGUGGCUAGACUGCC

Variants of: B1
Experiment: self-cleavage, relative activity (ratio to wild type); higher = more cleavage; in vitro, sequencing; the parent is a self-cleaving ribozyme

Variant	self-cleavage
G7C C15U C18A G19U	0.02
A24C U32A C45G	0.05
A6C G7C A14C C31G	0
C23U C31A G36C C37U	0.05
C15G G30U C46G	0.03
G7C G35A G40U	0.03
U20G G44U C46A	0.09
C15G G44C C45A	0.01
C23A C37U C42A	0.03
C3G G5C G19U	0.79
G19U C37A A39C	0.2
G2A A6U G17A G19U C23A	0.16
C8A G19A C46A	0.12
A6U G36C A39G	0.06
C3A G7U C13G	0.63
G19U U34C C37U G40A	0.05
G1C G5A U20G G40C	0.02
C3G G17U U20C G29A C37U	0.48
A14C C18G G40U C45A	0.02
A4C U34C C45U	0.15
G1U G2C G21U U32C G33U U38C	0
C31A U38A C42A	0.12
G1U A16C C23G	0.06
U28A G30U U34A	0.29

Variant	self-cleavage
C8A A16U U28G G30C A39G	0.17
A14U A26U U34G	0.7
G1A A6U U32A G35U G36A	0.06
A4G G5C G7A C18A	0.06
C15G C31U U43G C46U	0.02
A14C U20A G33U	0.01
G5C C10U G35A	0.04
C10G G29C U32A U38C C42A	0
C3G C10A G19A C23U	0.09
G1A C15U C23A G36C C46U	0.19
G19U G21C G27U G40C	0.12
G2A U20G G22C G36C A41G	0.02
G33C A41U C45A	0.04
G7C G17C G35C C37U	0.02
C15A G21U G22A U38C	0.02
G17A A26C U43C	0.07
G7U C10U A11C	0.06
G5U C8A A26U C45G	0.73
G7A C31U U34G G35A G36U C45G	0.06
U9G C23U U43A	0
G7A A16U G21A G33A	0.18
G2U A12G G22A G30C G44A	0.01
G2A C18G A25C C37U U43C	0.01
G7C G40C C46G	0.09

Variant	self-cleavage
U20C G21U U28A G33C U38C	0.02
A11C A12G G17U C31A G33U G44A	0.02
G1C A11U C23A G30A	0.02
C8A C10A A14G A16U G17C	0.02
A11C C15U C37U	0.03
G2A G5A A11C C18A	0.05
U28C A41C U43G	0.07
C3G G5U G36U	0.22
G5C G7U C10A A11U C18A U20A	0.02
A14U A41G C42U C46U	0.45
C10A G17C C23U	0.02
A4G G29A C31A A41U	0.07
G2C C13A A25U A39U	0.07
C3U A24G C46G	0.27
U9C G22A G27U G44U	0.03
C23G A26G G33U	0.06
C10G A16G G17U C42G U43G	0.08
C18G G19U G33U	0.01
G2C A4G G30C	0.07
C10A C13U A25U G33C U38C	0.01
G5U A12U G29U G33A	0.08
C15A A25C U32G C45U C46U	0.02
A11U C13A A14C C37A G44A C46A	0.01
C18U G35U U43A	0.03

Variant	self-cleavage
A6U C8G A12C C13A	0.01
A12C A16C C18A A26C A39G	0.01
G5C A39C C45U C46A	0
C3G A16C C23G	0.03
G7C A16U G29U C31A C37G	0
C13G C15A A16U C23G G27A G36C	0.04
C23U C37U G40A	0.03
C23A U32G G35A A41U	0.03
C31U G33C G40C G44U	0.04
G33A G35A C37G	0.11
A12G C13U A26G U34G	0.02
C18U G19U C45G	0.05
C15U U32G G40A C46U	0.04
A12G C15U U32G G35C U43C	0.04
G2U C31U C46U	0.01
C13U G29A C31A C37U	0.06
C13A U28G C42G	0.02
A4C C8U C10G G17A C23G G35C	0.01
C10U A12U G30U C31G	0.02
G19U U20A G27C U38A A39C	0.03
G2A A6U G21U A26G U32C	0.17
G29U U34A C37A	0.07
G7A G40A C46A	0.34
C3U A25C G35U C37U	0.09

Variant	self-cleavage
A4C G17A G30C C37A	0.04
C3U A6U G40U	0.09
C23A A24U U38A	1.51
G7C C13G G21A G30C	0.41
G1U C8G C15A A26G	0.06
G27C G29U C31U G33U C37G	0.03
C8A A11G G19U G30C	0.03
C10U A26C A41G	0
G1A G2A C31A	0.16
G5A C8A C46U	0.18
C3U G7A G29U U32G	0.1
C8U C10A G22A G27A G30A C37A A41C C42A C45A	0
G2A U32C C37U	0.12
G5A U9C U34C G40U	0.01
A24C C37G U38G	0.01
G2C G5A G21A C31A G36A C45A	0.18
A14G G19C G29U	0.04
C18A U32G G44A	0.01
C3U G17U U32A	0.09
A11U G27A A39C U43C	0.01
G21U G33A G40A	0.08
G22A A41C C42A	0.09
A25C G36U G40U	0.05
G7U C23A U34A	0.01

Variant	self-cleavage
G2A A25C U28A G36U C42A	0.12
G5A G7A C13A G21A	0.74
G22U C23G A25C	1.18
G1C C8A G29U C31A C46A	0.01
A4G A16G G27A U38A	0.2
C10A G21U G29U C37G	0.02
C10G C15U C37A U43C G44A	0.02
G5U A14G G17U G30C	0.11
A4C A6G G40C	0.04
C13U U20G G22A C31G	0.04
C3A C8A C46A	0.42
C13A G17C C31A G40A	0.01
G19U U20C U28A	2.29
U9G G29A G44A	0.03
U9A C10G A12G	0.01
C8U U9G G33U	0.04
G2U C3G G35U	0.02
G7U C18U U28G C31A G40C	0.01
C13A C18U C46G	0.08
G1U G2C A12G A16C C18A G30A G35U	0.02
G1C G22U G27U C37G	0.03
C8A A12G G22C	0.29
G2U G5U A26U	0.03
G5C C15U A24U	0.06

Variant	self-cleavage
G5C G7C A16C G19A C23U G33U U34G G36C	0.12
A14U C15G C46A	0.02
U9C A41C C42G	0.01
A6C A12G G30C	0.02
A11G G21A G22A	0.01
G2C C3A A6U C10G G22C	0.03
C8A G22A A25G G40U	0.33
G7U G35U A39G G40U	0.06
A6C C8G A26G G29U G35C	0.01
G1C G27U C31U G44U	0.04
G21U G29C G40U	0.03
G7A C13A A14U C18A	0.01
G7U C8A U34G	0.26
G1C C8A C31A G44U	0.01
C13U A26C G29C	0.08
C13A G22U U34C	0.07
C10A G40C G44C	0.07
A4C C13G A14G C18A A24G G35C U43A	0.01
U9A G29U C37A	0.39
G2U C8A C23U U38A	0.03
G1U C3G A14C C18U U38G	0.01
G5A A6C C15U G19U	0.45
A4G C23A G27A U28C C46U	0.15
